# This list was built around the results that the source calls inconclusive (neither active nor inactive); the mix of calls is not that of the screen. For some of these results: No potency is given beside an inconclusive call; the fits are too rough. The source made the active and inactive calls. Unless noted, calls follow the shape of the dose curve; as a rule, active = well fitted curve in the direction sought with a large enough effect in the repeat runs; inconclusive = weak or mixed curves; inactive = no such curve, though single readings can be large; an effect the other way counts as inactive or inconclusive.
# Assays:
# [1] = target: Aromatase (Homo sapiens) (UniProt P11511); test: qHTS assay to identify aromatase inhibitors (AID 743083); also: nearly all actives have a fitted effect of over 55% in size; also: potency is read from the fitted curve at half-maximal effect; as to activity, negative = inhibition: % is scaled to controls: 0 for no effect and ±100 for the full control effect
# [2] = qHTS assay to identify small molecule that activate the aryl hydrocarbon receptor (AhR) signaling pathway - cell viability counter screen (AID 743086); also: nearly all actives have a fitted effect of over 45% in size; also: potency is read from the fitted curve at half-maximal effect
# Summary of the method: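 HepG2-AhR-luc (HG2L7.5c1) cells, 4000/well, treated 24 h at 37 C with compound; viability measured as CellTiter-Fluor fluorescence after 30 min in the same wells as the luciferase read.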
# [3] = A CellTox Green Cytotoxicity Assay to monitor cytotoxicity in HEK293 cells - 24 hour (AID 1224875); also: nearly all actives have a fitted effect of over 45% in size; also: potency is read from the fitted curve at half-maximal effect
# Summary of the method: (§1)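 Each value comes from one timepoint of a single continuous run in which HEK293 cells with CellTox Green were exposed to compound for up to 40 h at 37 C, dye fluorescence rising with cell death.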
# [4] = A CellTox Green Cytotoxicity Assay to monitor cytotoxicity in HEK293 cells - 16 hour (AID 1224888); also: potency is read from the fitted curve at half-maximal effect; nearly all actives have a fitted effect of over 35% in size
# Summary of the method: as §1
# [5] = qHTS assay to identify small molecule antagonists of the estrogen receptor alpha (ER-alpha) signaling pathway using the BG1 cell line - cell viability counter screen (AID 743081); details: BG1Luc4E2 viability, CellTiter-Fluor, 22 h; activity change, negative = cytotoxicity: at 70.3 µM (top of the series);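 also: compound given together with 17beta-estradiol as the ER stimulus; nearly all actives have a fitted effect of over 45% in size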; also: potency is read from the fitted curve at half-maximal effect; as to activity change, negative = cytotoxicity: % is scaled to controls: 0 for no effect and ±100 for the full control effect
# [6] = qHTS assay for small molecule activators of the heat shock response signaling pathway (AID 743210; active = well fitted activation curve with a large enough effect in the signal ratio in the repeat runs, with a control signal flat, not every such curve was filed as active; inconclusive = weak or mixed curves; the % refers to the signal ratio; also: potency is read from the fitted curve at half-maximal effect); details: HeLa HSE-bla reporter, beta-lactamase ratio, 5 h; activation: at 62.6 µM (top of the series) unless noted
# Summary of the method: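 HSE-bla HeLa cells (beta-lactamase reporter under heat shock response elements), plated overnight, then exposed to compounds 5 h at 37 C; LiveBLAzer B/G FRET substrate added, 2.5 h at room temperature, fluorescence intensity read.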
# [7] = target: Estrogen receptor (Homo sapiens) (UniProt P03372); test: qHTS assay to identify small molecule agonists of the estrogen receptor alpha (ER-alpha) signaling pathway (AID 743075; calls by dose curve;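 also: HEK293 GripTite cells with ER-alpha and UAS-driven beta-lactamase reporter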; also: potency is read from the fitted curve at half-maximal effect); details: HEK293 ER-alpha-UAS-bla, beta-lactamase FRET ratio, 18 h; activation: at 70.1 µM (top of the series) unless noted
# [8] = qHTS assay to identify small molecule antagonists of the retinoid acid receptor (RAR) signaling pathway - cell viability counter screen (AID 1159551); also: nearly all actives have a fitted effect of over 35% in size; also: potency is read from the fitted curve at half-maximal effect
# Summary of the method: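 Following overnight attachment, C3RL4 reporter cells received DMSO-dissolved compounds and then retinol (1 uM final). Six hours later at 37 C, ATP content was measured by CellTiter-Glo luminescence.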
# [9] = qHTS assay to identify small molecule antagonists of the androgen receptor (AR) signaling pathway using the MDA cell line - cell viability counter screen (AID 743041; also: nearly all actives have a fitted effect of over 45% in size; also: potency is read from the fitted curve at half-maximal effect); details: MDA-kb2 viability, CellTiter-Fluor, 16 h, cells co-treated with R1881 androgen agonist; viability change, negative = cytotoxic: at 70.3 µM (top of the series)
# Summary of the method: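 MDA-kb2 AR-luc cells (MMTV-luciferase, AR/GR responsive) treated with compounds plus R1881 agonist for 16 h at 37C. CellTiter-Fluor added at 15.5 h; fluorescence read after 30 min in the same wells.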
# [10] = target: Progesterone receptor (Homo sapiens) (UniProt P06401); test: qHTS assay to identify small molecule agonists of the progesterone receptor (PR) signaling pathway (AID 1346784; calls by dose curve; also: % is scaled to controls: 0 for no effect and ±100 for the full control effect; nearly all actives have a fitted effect of over 30% in size); details: PR-UAS-bla HEK293T, beta-lactamase FRET ratio, 16 h; activation: at 92.4 µM (top of the series) unless noted
# Summary of the method: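 PR-UAS-bla HEK 293T cells carrying a UAS-driven beta-lactamase reporter were seeded in medium with 2% charcoal-stripped FBS, preincubated 6 hr at 37C, then exposed to compounds in DMSO for 16 hr; agonism was read by LiveBLAzer B/G FRET fluorescence.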
# [11] = target: Acetylcholinesterase (Homo sapiens) (UniProt P22303); test: Acetylcholinesterase (AChE) small molecule antagonists: enzyme-based qHTS assay (AID 1347397; calls by dose curve; also: nearly all actives have a fitted effect of over 55% in size; also: potency is read from the fitted curve at half-maximal effect); details: Potency: AChE enzyme activity inhibition; outcome: AChE enzyme activity inhibition
# Summary of the method: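 Recombinant human AChE (50 mU/mL) preincubated with compound 30 min at room temperature; acetylthiocholine plus DTNB then added, and thiocholine formation read colorimetrically after 10 min at room temperature. DMSO served as vehicle control.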
# [12] = qHTS RealTime-Glo MT Cell Viability Assay in HepG2 cells - 8 hour (AID 1224873); also: % is scaled to controls: 0 for no effect and ±100 for the full control effect; nearly all actives have a fitted effect of over 55% in size
# Summary of the method: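 HepG2 cells (600/well) mixed with RealTime-Glo MT reagent, settled 5 h at 37 C/5% CO2 before compound addition. Nonlytic NanoLuc luminescence from viable-cell prosubstrate reduction read repeatedly during 40 h treatment at 37 C.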
# [13] = qHTS assay to identify small molecule agonists of the hypoxia (HIF-1) signaling pathway (AID 1224846; active = well fitted activation curve with a large enough effect in the signal ratio in the repeat runs, not every such curve was filed as active; inconclusive = weak or mixed curves; the % refers to the signal ratio; also: potency is read from the fitted curve at half-maximal effect); details: HRE-bla ME-180 cells, beta-lactamase ratio, 17 h; activation: at 76.8 µM (top of the series) unless noted
# Summary of the method: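 Measured by blue/green FRET after loading CCF4-AM: beta-lactamase expressed from a hypoxia response element in ME-180 cells. Test agents were delivered in DMSO and left 17 hrs; cells had been plated 5 hrs earlier in low-serum (0.5% dialyzed FBS) medium.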
# [14] = target: Bile acid receptor (Homo sapiens) (UniProt Q96RI1); test: qHTS assay to identify small molecule agonists of the farnesoid-X-receptor (FXR) signaling pathway (AID 743220; active = well fitted activation curve with a large enough effect in the signal ratio in the repeat runs, not every such curve was filed as active; inconclusive = weak or mixed curves, or effect the other way; the % refers to the signal ratio; also: % is scaled to controls: 0 for no effect and ±100 for the full control effect); details: HEK293T FXR-UAS-bla, beta-lactamase FRET ratio, 16 h; activation: at 62.6 µM (top of the series)
# Summary of the method: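 Beta-lactamase reporter under UAS control in GeneBLAzer FXR HEK 293T cells (5000/well) measured with LiveBLAzer FRET substrate after 2 h at room temperature. Compound exposure lasted 16 h at 37C.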
# [15] = qHTS RealTime-Glo MT Cell Viability Assay in HEK293 cells - 0 hour (AID 1224880)
# Summary of the method: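 qHTS format; HEK293 cells with NanoLuc/prosubstrate reagent, 37 C/5% CO2 for 5 h pre-dosing; compounds 23 nL in DMSO; luminescence at each time point reflects viable cells.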
# [16] = qHTS RealTime-Glo MT Cell Viability Assay in HepG2 cells - 0 hour (AID 1224889); also: potency is read from the fitted curve at half-maximal effect; nearly all actives have a fitted effect of over 50% in size
# Summary of the method: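 HepG2 cells were seeded at 600 cells/well together with NanoLuc luciferase and a cell-permeant prosubstrate, preincubated 5 h at 37 C/5% CO2, then pin-dosed with compounds in DMSO. Nonlytic luminescence from viable cells was read at each time point.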
# [17] = target: Bile acid receptor (Homo sapiens) (UniProt Q96RI1); test: qHTS assay to identify small molecule antagonists of the farnesoid-X-receptor (FXR) signaling pathway (AID 743217; active = well fitted inhibition curve with a large enough effect in the signal ratio in the repeat runs, not every such curve was filed as active; inconclusive = weak or mixed curves, or effect the other way; inactive = no such curve, though single readings can be large or run the other way; the % refers to the signal ratio; also: % is scaled to controls: 0 for no effect and ±100 for the full control effect); details: HEK293T FXR-UAS-bla, beta-lactamase ratio, CDCA-stimulated, 16 h; activity change, negative = inhibition: at 62.6 µM (top of the series) unless noted
# Summary of the method: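 Beta-lactamase reporter under UAS control in HEK 293T cells; compound exposure 16 h at 37 °C in the presence of chenodeoxycholic acid (50 uM final); signal from B/G FRET substrate after 2 h at room temperature.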
# [18] = qHTS assay to identify small molecule antagonists of the TGF-beta/Smad signaling pathway (AID 1346924; active = well fitted inhibition curve with a large enough effect in the signal ratio in the repeat runs, not every such curve was filed as active; inconclusive = weak or mixed curves; the % refers to the signal ratio); details: SBE-bla HEK293T, TGF-beta/Smad reporter, beta-lactamase ratio; activity, negative = inhibition: at 76.8 µM (top of the series) unless noted
# Summary of the method: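 SBE-bla HEK 293T cells were plated overnight, then received compound in DMSO plus TGF-beta1 (added as a 0.25 ng/mL solution) and were incubated 5 h at 37 C. Beta-lactamase reporter activity was read after 2 h at room temperature with LiveBLAzer B/G FRET substrate (ex 405, em 460/530 nm).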
# [19] = target: Estrogen receptor (Homo sapiens) (UniProt P03372); test: qHTS assay to identify small molecule antagonists of the estrogen receptor alpha (ER-alpha) signaling pathway using the BG1 cell line in the presence of 0.1 nM 17-beta-estradiol (AID 1259244); also: potency is read from the fitted curve at half-maximal effect; nearly all actives have a fitted effect of over 50% in size
# Summary of the method: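 Quantitative high-throughput screen in VM7Luc4E2 cells: compound plus 0.1 nM E2 (final), 22 h, 37C, 5% CO2; ONE-Glo added, 30 min room temperature, luminescence measured.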
# Tags tell the direction and shape of the fitted curve or compound fluorescence and quenching.
# UniProt P03372, sequence (P03372 whole entry, looked up): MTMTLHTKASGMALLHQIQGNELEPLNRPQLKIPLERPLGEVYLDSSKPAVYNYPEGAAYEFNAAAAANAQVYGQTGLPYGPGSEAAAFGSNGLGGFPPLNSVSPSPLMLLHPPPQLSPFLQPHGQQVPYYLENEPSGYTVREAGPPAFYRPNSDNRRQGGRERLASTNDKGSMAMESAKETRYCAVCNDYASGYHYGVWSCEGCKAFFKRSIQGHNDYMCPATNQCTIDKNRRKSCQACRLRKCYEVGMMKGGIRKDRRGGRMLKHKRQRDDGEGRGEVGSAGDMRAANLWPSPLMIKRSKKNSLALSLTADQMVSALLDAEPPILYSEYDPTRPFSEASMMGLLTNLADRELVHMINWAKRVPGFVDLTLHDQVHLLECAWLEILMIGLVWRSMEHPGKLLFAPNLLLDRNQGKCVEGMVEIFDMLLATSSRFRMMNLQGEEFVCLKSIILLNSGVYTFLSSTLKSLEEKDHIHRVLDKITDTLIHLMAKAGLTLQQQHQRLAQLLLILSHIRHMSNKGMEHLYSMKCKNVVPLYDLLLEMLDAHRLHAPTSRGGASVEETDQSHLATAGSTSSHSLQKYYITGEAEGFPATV
# UniProt Q96RI1, sequence (Q96RI1 whole entry, looked up): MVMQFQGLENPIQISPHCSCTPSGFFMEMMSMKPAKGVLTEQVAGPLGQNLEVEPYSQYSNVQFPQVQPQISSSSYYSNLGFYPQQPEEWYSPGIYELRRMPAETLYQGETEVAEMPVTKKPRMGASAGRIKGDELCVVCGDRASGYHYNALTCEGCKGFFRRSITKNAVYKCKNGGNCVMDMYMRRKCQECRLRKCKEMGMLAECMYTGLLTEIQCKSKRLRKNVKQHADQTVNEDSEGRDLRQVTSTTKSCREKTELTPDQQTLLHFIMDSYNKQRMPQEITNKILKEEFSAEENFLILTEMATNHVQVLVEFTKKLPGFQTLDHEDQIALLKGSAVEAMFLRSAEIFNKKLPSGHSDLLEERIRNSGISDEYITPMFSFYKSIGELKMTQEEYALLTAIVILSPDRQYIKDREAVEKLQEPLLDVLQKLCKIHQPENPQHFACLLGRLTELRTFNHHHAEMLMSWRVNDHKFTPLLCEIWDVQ
# UniProt P06401, sequence (P06401 whole entry, looked up): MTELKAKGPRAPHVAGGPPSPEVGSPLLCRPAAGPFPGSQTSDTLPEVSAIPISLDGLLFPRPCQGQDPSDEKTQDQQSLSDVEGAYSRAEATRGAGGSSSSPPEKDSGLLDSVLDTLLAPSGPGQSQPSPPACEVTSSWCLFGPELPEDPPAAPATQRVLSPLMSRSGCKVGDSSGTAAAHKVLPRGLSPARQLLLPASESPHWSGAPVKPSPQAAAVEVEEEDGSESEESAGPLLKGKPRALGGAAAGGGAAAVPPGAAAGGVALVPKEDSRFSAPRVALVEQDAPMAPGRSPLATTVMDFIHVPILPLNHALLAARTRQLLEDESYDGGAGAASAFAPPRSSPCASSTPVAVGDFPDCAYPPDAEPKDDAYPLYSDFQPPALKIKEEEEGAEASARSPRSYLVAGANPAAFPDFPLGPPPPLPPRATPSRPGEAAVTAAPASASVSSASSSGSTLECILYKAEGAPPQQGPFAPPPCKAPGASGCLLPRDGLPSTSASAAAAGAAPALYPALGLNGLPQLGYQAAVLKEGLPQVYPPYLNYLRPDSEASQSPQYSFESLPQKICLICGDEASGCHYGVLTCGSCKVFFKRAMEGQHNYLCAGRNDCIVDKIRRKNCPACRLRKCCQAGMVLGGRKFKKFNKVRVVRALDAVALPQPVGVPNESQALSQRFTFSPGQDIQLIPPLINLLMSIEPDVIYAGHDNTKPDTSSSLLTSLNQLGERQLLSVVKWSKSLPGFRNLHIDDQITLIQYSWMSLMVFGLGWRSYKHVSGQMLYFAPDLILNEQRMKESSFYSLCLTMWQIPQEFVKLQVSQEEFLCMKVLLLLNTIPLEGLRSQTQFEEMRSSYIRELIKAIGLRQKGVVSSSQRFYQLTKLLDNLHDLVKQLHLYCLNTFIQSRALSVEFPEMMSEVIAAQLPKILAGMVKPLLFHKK
# UniProt P11511, sequence (P11511 whole entry, looked up): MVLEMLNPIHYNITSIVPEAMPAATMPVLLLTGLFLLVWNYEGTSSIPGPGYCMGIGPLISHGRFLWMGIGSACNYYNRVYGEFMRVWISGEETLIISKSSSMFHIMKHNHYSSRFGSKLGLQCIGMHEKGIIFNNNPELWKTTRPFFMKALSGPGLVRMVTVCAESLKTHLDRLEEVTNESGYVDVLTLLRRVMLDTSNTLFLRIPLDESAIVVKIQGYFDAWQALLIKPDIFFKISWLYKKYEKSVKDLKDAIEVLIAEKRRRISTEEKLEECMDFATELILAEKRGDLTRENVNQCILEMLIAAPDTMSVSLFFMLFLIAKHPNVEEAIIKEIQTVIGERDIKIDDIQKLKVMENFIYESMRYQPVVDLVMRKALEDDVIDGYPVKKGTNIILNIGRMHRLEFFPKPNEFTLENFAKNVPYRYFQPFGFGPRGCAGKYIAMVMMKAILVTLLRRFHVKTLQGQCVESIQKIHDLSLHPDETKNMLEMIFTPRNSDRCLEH
# UniProt P22303, sequence (P22303 whole entry, looked up): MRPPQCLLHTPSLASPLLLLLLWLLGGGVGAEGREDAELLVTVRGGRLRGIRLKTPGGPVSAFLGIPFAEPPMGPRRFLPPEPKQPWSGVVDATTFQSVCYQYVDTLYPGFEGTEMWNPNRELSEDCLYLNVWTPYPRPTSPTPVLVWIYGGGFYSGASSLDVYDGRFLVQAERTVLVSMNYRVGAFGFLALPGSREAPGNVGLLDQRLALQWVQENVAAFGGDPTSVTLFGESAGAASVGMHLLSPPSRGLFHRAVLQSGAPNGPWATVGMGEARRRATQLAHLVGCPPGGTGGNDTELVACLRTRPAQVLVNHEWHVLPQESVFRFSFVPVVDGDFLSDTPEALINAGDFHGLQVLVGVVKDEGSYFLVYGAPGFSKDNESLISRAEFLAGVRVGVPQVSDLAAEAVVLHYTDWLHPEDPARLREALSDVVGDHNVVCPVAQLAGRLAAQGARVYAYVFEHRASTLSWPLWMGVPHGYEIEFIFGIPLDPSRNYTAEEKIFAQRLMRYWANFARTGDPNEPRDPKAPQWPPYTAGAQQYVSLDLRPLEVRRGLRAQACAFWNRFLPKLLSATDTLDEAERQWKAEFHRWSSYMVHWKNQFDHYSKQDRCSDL
compound,measurement,setting,value
CC(C)CCON=O,Potency,[1],inactive
same,Potency,[2],"inconclusive [falling, single point]"
same,Potency,[3],"inconclusive [activator, partial curve]"
same,Potency,[4],"inconclusive [activator, partial curve]"
CC(C)OC(=O)Nc1cccc(Cl)c1,Potency,[5],inactive
COc1cccc([C@@]2(O)CCCC[C@@H]2CN(C)C)c1,Potency,[5],inactive
same,Potency,[6],inactive
same,Potency,[3],inactive
COS(=O)(=O)OC,Potency,[7],inactive
CCOP(=S)(OCC)SCSP(=S)(OCC)OCC,Potency,[8],inactive
CC[N+]1(C)CCCC(OC(=O)C(O)(c2ccccc2)c2ccccc2)C1 (stereo not drawn),Potency,[9],inactive
COc1ccc(N)cc1,Potency,[3],"inconclusive [activator, single point]"
same,Potency,[4],"inconclusive [activator, single point]"
CC(C)(O)C#N,Potency,[10],inactive
O=C(NC(=O)c1cc(F)c(F)cc1Cl)Nc1cc(F)ccc1N1CCC(C(=O)O)CC1,Potency,[2],inactive
C=CCN1CC[C@]23CCCC[C@H]2[C@H]1Cc1ccc(O)cc13,Potency,[9],"inconclusive [cytotoxic, single point]"
CCOP(=S)(OCC)SCSC(C)(C)C,Potency,[6],"inconclusive [fluorescent, full curve, poor fit]"
CCOP(=S)(Oc1cnc(C(C)(C)C)nc1)OC(C)C (stereo not drawn),Potency,[1],inconclusive [inhibitor]
same,Potency,[11],active: 63.3 µM
CCCSP(=S)(OCC)Oc1ccc(Cl)cc1Cl (stereo not drawn),Potency,[7],"inconclusive [activator, partial curve, poor fit]"
same,Potency,[5],inactive
same,Potency,[8],inactive
same,Potency,[12],inactive
CC(Cc1ccccc1)NCc1ccccc1Cl (stereo not drawn),Potency,[13],"inconclusive [falling, single point]"
same,Potency,[3],"inconclusive [activator, partial curve, poor fit]"
O=C1OC(CCN2CCCCC2)OC1(c1ccccc1)c1ccccc1 (stereo not drawn),activation,[14],inconclusive: 11.1%
CCC/C(=N\OCC)C1=C(O)CC(CC(C)SCC)CC1=O (stereo not drawn),Potency,[13],inactive
CNNC,Potency,[15],inactive
CCCCOCCOC(C)=O,Potency,[7],inactive
same,Potency,[1],inactive
CC(C)Br,Potency,[8],"inconclusive [rising, partial curve, poor fit]"
same,Potency,[16],"inconclusive [cytotoxic, partial curve]"
same,Potency,[10],inactive
CNC(=O)O/N=C(\C)C(C)S(C)(=O)=O (stereo not drawn),Potency,[17],inactive
same,Potency,[11],"inconclusive [falling, partial curve]"
O=[N+]([O-])c1cc([As](=O)(O)O)ccc1O,Potency,[5],"inconclusive [cytotoxic, partial curve]"
same,Potency,[2],"inconclusive [falling, partial curve]"
same,Potency,[11],inactive
Cc1cccc(C)c1N,Potency,[9],inactive
same,Potency,[14],inactive
ClSC(Cl)(Cl)Cl,"activity, negative = inhibition",[18],inconclusive: 4.4%
CN1C(=S)CN=C(c2ccccc2)c2cc(Cl)ccc21,Potency,[4],"inconclusive [activator, single point]"
same,Potency,[19],"inconclusive [inhibitor, partial curve]"

# From PubChem BioAssay (Tox21)
